According to PubChem BioAssay AID624417 (National Center for Advancing Translational Sciences (NCATS), 2012):
Among all 410,000 compounds or so, about 6,400 (1.6%) were called active. The shares of active, inactive and inconclusive entries below differ from those in the screen. The call rests on the fitted dose curve; in most records, active means well fitted inhibition curve with a large enough effect; inconclusive means small, poorly fitted or top-dose-only effect; inactive means no such curve, though single readings can be large or run the other way. No potency is given beside an inconclusive call; the fits are too rough.

These compounds were tested against Glucagon-like peptide 1 receptor (Homo sapiens) (UniProt P43220) (assay: qHTS of GLP-1 Receptor Inverse Agonists (Inhibition Mode)). Settings: HEK293 GLP-1R CRE-luciferase, luminescence, 24 h, GLP-1R form is constitutively active; activity change, negative = inhibition: at 38.3 µM (top of the series) unless noted.
UniProt P43220, sequence (P43220 whole entry, looked up): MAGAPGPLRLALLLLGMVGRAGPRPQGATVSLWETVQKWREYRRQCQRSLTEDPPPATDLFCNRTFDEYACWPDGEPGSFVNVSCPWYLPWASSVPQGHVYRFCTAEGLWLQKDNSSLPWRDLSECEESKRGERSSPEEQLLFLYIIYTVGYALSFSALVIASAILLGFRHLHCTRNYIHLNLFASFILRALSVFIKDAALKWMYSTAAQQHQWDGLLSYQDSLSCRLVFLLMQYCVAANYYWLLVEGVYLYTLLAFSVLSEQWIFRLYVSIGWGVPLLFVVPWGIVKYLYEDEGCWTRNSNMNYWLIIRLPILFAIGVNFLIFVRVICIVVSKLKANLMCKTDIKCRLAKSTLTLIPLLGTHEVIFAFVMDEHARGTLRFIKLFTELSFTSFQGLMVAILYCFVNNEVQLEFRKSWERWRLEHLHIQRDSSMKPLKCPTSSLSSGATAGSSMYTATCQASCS
In short: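 Stable HEK293 clone (constitutively active GLP-1R + cAMP-response luciferase); 200 cells/uL plated, 12 h pre-culture, compound 24 hr, 37 deg C/5% CO2; detection reagent 12 min RT; luminescence.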
Further: nearly all actives have a fitted effect of over 55% in size.
On the % scale 0 is the no-effect control and ±100 the full control effect; potency means the concentration at half of the fitted maximal effect; tags describe the fitted curve by direction and shape.

SMILES	Potency	activity change, negative = inhibition
CS(=O)(=O)Cc1ccc(C(=O)NC2CCN(Cc3ccccc3)C2)cc1 (stereo not drawn)	inactive	–
Cc1cccc(C)c1NC(=O)CCCN1C(=O)C(c2ccccc2)Oc2cccnc21 (stereo not drawn)	inconclusive [inhibitor, partial curve, poor fit]	–
Cc1ccc(S(=O)(=O)N2CCCCC2)cc1NC(=O)c1cccs1	inconclusive [inhibitor, single point]	–
Cc1ccc2nc(CSc3nc(C)ccc3C#N)[nH]c2c1	inconclusive [inhibitor, full curve, poor fit]	–
COc1ccc(Nc2cc(C)c3ccccc3n2)cc1	inconclusive [inhibitor, single point]	–
O=C(NC(=S)NC12CC3CC(CC(C3)C1)C2)c1ccc(F)cc1	inconclusive [inhibitor, partial curve, poor fit]	–
O=C(CN1C(=O)NC2(CCOc3ccccc32)C1=O)NCc1ccccc1 (stereo not drawn)	inactive	–
CC(O)CN1C(=O)C(CC(=O)Nc2ccc(Cl)cc2)SC1=Nc1ccccc1 (stereo not drawn)	inconclusive [inhibitor, full curve, poor fit]	–
CCC1(c2ccc(Cl)cc2)NC(=O)N(Cc2ccc(C(=O)OC)cc2)C1=O (stereo not drawn)	inconclusive [inhibitor, partial curve]	–
O=[N+]([O-])c1cccc(CN2CCCCCC2)c1	inactive	–
O=S(=O)(c1ccc2nc(NCc3ccccc3Cl)ccc2c1)N1CCCCC1	inconclusive [inhibitor, partial curve, poor fit]	–
CCCCCCCCNC(=O)c1cccnc1SCC(=O)Nc1ccc(OC)cc1OC	inconclusive [inhibitor, partial curve, poor fit]	–
COc1cccc(-n2c(SCC(=O)NCCc3ccccc3)nnc2-c2ccoc2C)c1	inconclusive [inhibitor, partial curve, poor fit]	–
CCC(=O)N1CCN(c2ccc(NC(=O)c3ccco3)cc2Cl)CC1	inactive	–
O=C(NCCN1CCN(c2ccccc2)CC1)Nc1ccccc1Cl	inconclusive [inhibitor, single point]	–
Cc1ccc(C)c(OCC(O)CN2CCc3ccccc3C2)c1C (stereo not drawn)	active: 8.91 µM	–
Cc1ccc(NC(=O)CCn2cccc2)cc1Cl	inconclusive [inhibitor, single point]	–
Cc1ccc(Cn2c(=N)n(CC(O)c3ccco3)c3ccccc32)cc1 (stereo not drawn)	inconclusive [inhibitor, partial curve, poor fit]	–
Cc1ccc(NC(=O)CN2C(=O)NC3(CCC(C)CC3)C2=O)c(Cl)c1 (stereo not drawn)	inconclusive [inhibitor, single point]	–
CC(C)(CO)CNc1ccn2nccc2n1	inconclusive [inhibitor, partial curve, poor fit]	–
Cc1ccc(N2CCN(CC(O)COC3CCCCC3)CC2)cc1 (stereo not drawn)	inactive	–

SMILES	Potency	activity change, negative = inhibition
COc1ccccc1N1CCN(c2ccc(-c3ccccc3)nn2)CC1	inconclusive [inhibitor, full curve, poor fit]	–
COc1ccc2[nH]cc(CCNS(=O)(=O)c3ccc(C)cc3)c2c1	inconclusive [inhibitor, partial curve, poor fit]	–
S=C(NCCc1ccc(Cl)cc1)NCc1ccco1	–	inactive: 4.88% [at 7.66 µM]
CC(C)OC(=O)/C(=C\c1cccc2ccccc12)NC(=O)c1ccccc1	active: 10 µM	–
CCOc1ccc(NS(=O)(=O)c2ccc(C(=O)NCC(c3ccco3)N3CCCC3)cc2)cc1 (stereo not drawn)	inconclusive [inhibitor, single point]	–
CCN(CC)S(=O)(=O)c1cc(NC(=O)CSCc2c(C)noc2C)ccc1C	inconclusive [inhibitor, partial curve, poor fit]	–
Cc1cc(N/N=C/c2ccc(Cl)cc2Cl)nc(NCc2ccccc2)n1	inconclusive [inhibitor, full curve]	–
CCc1ccc(OCc2nc(-c3ccc(OC)cc3)no2)c(Br)c1	inconclusive [inhibitor, single point]	–
C/C(=C\C(=S)Nc1ccccc1)Nc1ccccc1	inconclusive [inhibitor, partial curve, poor fit]	–
FC(F)(F)c1cc(-c2ccccc2)nc(NC2CCCC2)n1	inconclusive [inhibitor, partial curve, poor fit]	–
COc1ccc(C2=NOC(Cn3nc(C(=O)NCc4cccc(C(F)(F)F)c4)cc3-c3ccccc3)C2)cc1 (stereo not drawn)	inconclusive [inhibitor, single point]	–
CCOC(=O)C(C)Sc1nnc(-c2ccccc2O)n1-c1ccc(C)cc1 (stereo not drawn)	inconclusive [inhibitor, partial curve, poor fit]	–
CCN(Cc1ccccc1)S(=O)(=O)c1ccc(C(=O)N(CCCN(C)C)c2nc3cc(C)cc(C)c3s2)cc1	inconclusive [inhibitor, partial curve, poor fit]	–
COc1ccc(CC(=O)OCC(=O)N2N=C(c3ccccc3)CC2c2ccc(OC)cc2)cc1 (stereo not drawn)	inconclusive [inhibitor, partial curve, poor fit]	–
c1ccc(CN2CCN(C3=Nc4cccc5cccc3c45)CC2)cc1	inconclusive [inhibitor, single point]	–
Cc1ccc(CCNC(=O)CS(=O)Cc2nc(-c3ccccc3C)oc2C)cc1 (stereo not drawn)	inconclusive [inhibitor, single point]	–
Cc1ccc(NC(=O)c2cc3ccccc3cc2O)cc1	inconclusive [inhibitor, partial curve]	–
O=C(CN1C(=O)CSc2ccc(S(=O)(=O)N3CCCCCC3)cc21)NCCc1ccccc1	inconclusive [inhibitor, partial curve, poor fit]	–
CC12COC3(C(=O)Nc4ccc(Cl)cn4)CC1CCC32C (stereo not drawn)	inconclusive [inhibitor, partial curve, poor fit]	–
COc1cc(/C=C/c2ccc3cccc(O)c3n2)cc(Cl)c1OC	inconclusive [inhibitor, full curve, poor fit]	–
Cc1nn(CC(=O)N/N=C/c2cccs2)c(C)c1[N+](=O)[O-]	inactive	–

SMILES	Potency	activity change, negative = inhibition
O=C(c1cc(S(=O)(=O)N2CCN(c3ccccc3)CC2)ccc1Cl)N1CCCC(C(F)(F)F)C1 (stereo not drawn)	inconclusive [inhibitor, partial curve, poor fit]	–
CCCCCc1nc(N)c(C#N)c(-c2ccco2)c1CCCC	inconclusive [inhibitor, single point]	–
CCSc1nnc(-c2sc3nnc(-c4ccccc4)c(-c4ccccc4)c3c2N)o1	inconclusive [inhibitor, full curve, poor fit]	–
Cc1onc(-c2c(Cl)cccc2Cl)c1C(=O)N1CCN(Cc2ccccc2)CC1	inactive	–
Nn1c(Cc2cccc3ccccc23)nnc1SCCOc1ccc(Br)cc1	inconclusive [inhibitor, partial curve, poor fit]	–
Cc1ccccc1OCCNC(=S)Nc1ccccc1	inconclusive [inhibitor, partial curve, poor fit]	–
CCCCN(C)S(=O)(=O)c1ccc(C(=O)Nc2sc3c(c2C(N)=O)CC(C)(C)NC3(C)C)cc1	inconclusive [inhibitor, partial curve]	–
COc1cccc(CNc2nc(NCC3CC3)nc3ccsc23)c1	inconclusive [inhibitor, single point]	–
COc1cccc([C@@H]2Oc3ccc(OC)cc3C(=O)[C@H]2O)c1	inconclusive [inhibitor, partial curve, poor fit]	–
Cc1ccc(S(=O)(=O)NCC(=O)OCc2cc(=O)oc3cc(C)ccc23)cc1	inactive	–
O=C(COc1cccnc1[N+](=O)[O-])N1CCc2ccccc21	inactive	–
Cc1cc(OC(C)C(=O)NC(Cc2c[nH]c3ccc(O)cc23)C(=O)O)c2c(C)c(C)c(=O)oc2c1 (stereo not drawn)	inactive	–
Cc1ccc(-c2csc3ncnc(-n4nnc5ccccc54)c23)cc1	inconclusive [inhibitor, single point]	–
Cc1ccc2c(c1)C1CN(C)CCC1N2C(=S)Nc1ccc(OC(F)F)cc1 (stereo not drawn)	inconclusive [inhibitor, single point]	–
CN(C)CCn1c(=O)n(C2CCCCC2)c(=O)c2c3c(sc21)CCCCC3	inconclusive [inhibitor, full curve, poor fit]	–
COCCn1c(COc2ccccc2)nnc1SCC(N)=O	inactive	–
C[C@@H]1CN([C@H](C)CO)S(=O)(=O)c2ccc(C#CC3CCCC3)cc2O[C@H]1CN(C)C(=O)Cc1ccccc1	inconclusive [inhibitor, single point]	–
C=CCOc1ccccc1CN1CCC(n2nccc2NC(=O)c2ccccc2)CC1	inconclusive [inhibitor, partial curve, poor fit]	–
C[C@@H]1CCCCO[C@H](CN(C)S(=O)(=O)c2cccs2)[C@H](C)CN([C@@H](C)CO)C(=O)c2cc(NC(=O)NC3CCCCC3)ccc2O1	inconclusive [inhibitor, partial curve, poor fit]	–
Oc1ccc(Cl)cc1CNc1nccs1	inconclusive [inhibitor, partial curve, poor fit]	–
CCNc1nc(-c2ccc(Cl)cc2)cs1	inconclusive [inhibitor, single point]	–
